Experimental data from paper PMC10726135.
Some of the results follow. At the low end of the ranking the order means little. The protein was read in a cell extract, so binding may be indirect.

Biological target: T1, HNF4alpha2 (COS-7 nuclear extract) (UniProt P41235)
T1 sequence: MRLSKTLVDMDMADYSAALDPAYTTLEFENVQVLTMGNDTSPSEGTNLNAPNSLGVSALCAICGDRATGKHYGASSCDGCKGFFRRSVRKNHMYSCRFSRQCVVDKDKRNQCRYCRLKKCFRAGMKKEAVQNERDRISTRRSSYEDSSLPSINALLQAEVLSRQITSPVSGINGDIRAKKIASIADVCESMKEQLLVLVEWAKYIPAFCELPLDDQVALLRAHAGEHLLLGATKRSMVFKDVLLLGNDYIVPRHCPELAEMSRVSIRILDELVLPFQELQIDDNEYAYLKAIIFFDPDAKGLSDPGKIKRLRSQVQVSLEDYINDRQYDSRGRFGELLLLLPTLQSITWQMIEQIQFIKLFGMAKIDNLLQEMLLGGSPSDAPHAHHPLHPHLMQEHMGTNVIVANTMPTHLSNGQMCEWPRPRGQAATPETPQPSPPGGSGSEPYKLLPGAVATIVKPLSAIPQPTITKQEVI
Assay: protein-binding microarray
Conditions: COS-7 nuclear extract on double-stranded Agilent 4x180k PBM; binding buffer, salt, pH and temperature not given; high values mean tight binding; double strand, one strand shown; sequences stand for … in …GCCTAGGGAGATTAGAGTATCGGTCGA

Sequence	binding signal (log2 normalized intensity)
CCAAAAGCTTTACTAAAACAGGGAGCAGGC	-1.09
AGCAAAGGGCAGATAACAAGGGCATGTAAA	-0.955
CAGATCCACATCGAAGGCCAAGGGATTTCA	-1.24
GTGGAGGGCGTGTAGGGAGTGGTTCCCACA	-0.931
CAAAGTACACTTGGAGAAAAAAAACCATTG	-0.754
CTCCAAGGTACTGTGAACTCCAGCTGGGCA	-0.764
CCAACACAGAAGCCTTTTGTTCTTTGTGTG	1.42
CAAAGGTCAACAGCCAGCCTCAAAGATCAA	2.58
AATGTCAGCCTGCTCAGGGAGAAGCAAATA	-0.932
ATGTGGTCCTAAGACTAACCTTTGACCATC	7.45
CCTTTAGAGGGCAAGGATCAGCCCCACACT	2.09
AATTCCAGGATCCAAGATCCAACTCTGAAG	-0.919
CCCCTCCCCCACACAGACAAAGACAGAGAG	4.09
GAAGATGCAACAGTGACCCAAATATGGTCC	-0.37
AGGTCTAAGTAAACTGTTCAAGACTTTCAG	-0.924
GCTAGCTGAGAGACTTTATCCGTATAACAA	0.102
AAAAATGATGCCTGACTCAAGAAAGGATCT	-0.989
GATCTGCAGGTAGGGGTGGGATGGGGAGCA	-1.11
GTGGGTTCTAGGTAATCACCCTCTCCACCC	1.56
TTTCAACATCCTCTCAGGTCAAAGTTTGCC	2.93
TTTTTTTTAACGGTCTGCCCTCTTGTCCTT	3.57
CTGCTGGGAGTTGTAGTTTTTTGGGCCCCT	1.36
CACTACTCCAGGGAGAAACCTGCCAGGTGG	-1.1
ACGTTTCTGTGGTCAGGGCCTTTCCAGCAA	-0.905

Sequence	binding signal (log2 normalized intensity)
AAACAGATGTTGGTGGGAGGATTTCTTCAT	-1.15
CGGTTTTAGGACAACATGAGTAAACGAGCT	-1.21
AAAAAGCTCTGCCTACGCATGCATTCCAGT	-1.14
CCTCAGCCGGGAGAGGAGGCCCCCTGAGGC	1.15
TTCACTTCCCTATCCCGCTGCTTCCACCAG	-1.19
AGATGATGAGGCGGTTCATCCAACAGGTGA	-0.966
TGGGGATCAAAGCGTATGGGAGGGCTATTT	-1.15
ACTCCTACAATTGCTGGTCCCTTTCAAAAC	0.44
CCTCCTGCTGCAGCTCTGGGCCCCTCGGCC	-1.19
GTTTCTCAAGTGATCGAAGGTCAACTTATC	3.91
CAAAGTCCCCTGAGCTTGAGTCCATCCCAT	1.91
GGTTAATGATTATGCCTCTGTGACCTATAA	2.4
AACTCAGGGTCTGGTTCCAAAGTCTGCAGA	2.77
TTCCATTGAAGCAGAGTGTCCCATATCACA	0.724
TCTTGGCTTCTCTTGGACCTCAATGTGCTC	1.99
TGTAGCTAAAATGTTAATGATTACTAGAGA	-0.00115
CCCACAAAGCCTAAAATATTCACTATCTGA	-1.16
AAGATTCCTGCTCTAATGTTCCTTATCAGA	-1.23
CGCCGAGCAGGCACCCCGGGAGCGCCGAGC	-1.09
TTCAGAGGCAGGGACTGAGGAATCTGGCTG	-1.15
ACCAGAGGCTGAAGTGAAGTTACAAAGGTC	5.21
GGGCGAGAGAGTTCTATGGGATGACCTTTG	6.25
AGAAAGAAGAGACAGCTGGGCCCTGCCTGA	-1.23
GGCATTCTTAACAAAACCTGTTTAGGATTA	0.363

Sequence	binding signal (log2 normalized intensity)
CCAGGCTGAAGTGGCCCAAGATGGAGATGA	-1.18
TCAAAGGGCTTAATCTTTCCTGCCTGCCGG	-0.693
ATTGTGATGTGTGCGTTCATCTCACAGAGT	1.15
GATTGCAACCAAGTCCATCTGTATTGCCTC	-0.881
CTGTGAAGCACATCCTGTTCTAGCTCGGGG	0.174
TTTCTATGTGACCTTCACCCTGCTGTAAAT	3.71
GTCCTTAAGATCCAAAGGAGTGGTCCTGCT	-1.17
GATCTAATGCACCCAGAACCCCCAGGTCAC	4.94
ACCTGTTCAGCCAGATTCTCTCACTGCTCT	-1.07
TGGACCACGTGGCTAGATTGCAACCAAGTC	-0.749
GGAACTATTGGATTCCCCAATGCAGTACTA	0.426
TGCATTCCTGTCCACCCTGAAAGAGAGGAG	-1.03
TCTCGGCCTTAAGAGTCAAAGGGCAAAGGA	2.94
TGGGATGGAACAAGGTCCCATGCACTGGCC	-1.02
GCAGCTTGGGAGCAATTTAGCAGCACCATC	-1.16
GGTCAAAGTACATCCCCTAAAACATCAAAT	2.98
ACTGAACATACAGGGTCTAGCAGTGCAGCG	-1.18
CAGCCAGAGGCCTTATCTGGCCGCCTAATC	-1.04
TAAGGATGCGGACTCCTCCCTCAGCCTGAA	-1.12
GAGTAAAGGTCACTCTTGCTATGCAAACAG	2.79
GCCGCGCGGCTTCAGAGGCCAGCAGTGCTT	-1.13
AGATTTGCAGCTCAAAGTGCTTTTCAATCT	-1.1
ATATCAGGTATTGCCCAGTATTGATGTGAG	1.54
CTCTAGGGTAGATAAGGATGGATCAAAGGA	-0.461

Sequence	binding signal (log2 normalized intensity)
GGCTAGACTTTAACCCCCTTGTCTTCCTCA	3.56
AAAAGGATGCTAGGTTTGTGAGTCCAAAGG	4.16
CAGTCTCTTGAAATCCCAAGCAGTGATATT	-0.325
GACCCTTGGCCTCTACAGCTACTCCAGCTG	3.05
ACTATTATTAGAGTCCCTTTTTTAGACAAG	-0.0501
ACTCGTGGCATTTTTGCCCCTGCCCTAGAG	2.1
CGGGCGGTCGGAGTCCACGTCCTCCCCCAG	3.43
GAACCTCCCTCCCCATCTCCCCAGACACTC	5.29
TAATAACACTCCCATCTGCCATCAGTATCC	-1
AGCGCTTATCTGGAAACTATTCCTTTGTTT	-1.14
GCAAACAGAGATAGTTTGACTTTCTCTCTT	-1.1
GGGGGAAGTGTGGTCAAGGGTCAGTTTCTG	3.9
CCTCTGTCTCTCAGGCACAGCTCGACCTTT	5.94
TGAAGACCTGTACAGGGACTGTGTCAACAA	-1.08
CGAGTTCCCTCGATTATTTCAGCCAGGGCT	-1.11
GCCCTTTGTCCTATGACTCTCTCAACACTG	2.98
TGGACTCCTGTTTGAACAAACCAGCTTTGA	-1.15
AGAAGTTGGACTTTGTACATTCCAAATACG	6.88
TTATGGCTGGTTTGGTCTTTTATCTAGACC	1.5
CTTTAGGAGAAGGAAAAAAATAGGAGACTG	-1.05
CGCCCTCAGTGTTTTCACTGCTGGGTTTCT	0.938
